# Source: the supplement of paper PMC10126150
# Sequences with one replicate were seen in a single cluster, so their values are uncertain.
# Test system: ATP
# Assay: switch fluorescence ratio, 500 uM ATP over buffer (Cy3 cluster intensity, sum of 5 cycles each) (fold (ratio)); higher = stronger signal-on switching upon ATP binding; sequences stand for … in TCGTCGGCAGCGTCAGATGTGTATAAGAGACAGTTTTTTTTTTTTTTTTTTTTTTTTT…TC
# Conditions: aptamer strand: ATP DNA aptamer (quencher-CACCTGGGGGAGTATTGCGGAGGAAGG + anchor), 100 nM annealed; ATP concentration: 500 uM; one replicate
# Summary of the method: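 Per cluster, summed Cy3 intensity from the target cycles was divided by that from the buffer cycles to give the fluorescence ratio, then averaged per switch-domain sequence. Clusters outside 100-1000 RFU were excluded. The Cy3-labelled switching-strand clusters, on a modified Illumina MiSeq flow-cell, were annealed to 100 nM quencher-labelled ATP aptamer and imaged in selection buffer, then after 15 min with 500 uM ATP at 22 °C, for five cycles with NaOH stripping and re-annealing between them.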
# 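Further: ATP exposure 15 min at 22 °C before imaging.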
row,Sequence,switch fluorescence ratio
1,CCAGTTCGTT,1.01
2,AATTGGCGTG,0.967
3,CCACTATAGC,1.23
4,TATTCCCGTT,1
5,GAAGTTGCC,1.07
6,TTAAGACATT,0.99
7,CGAGGAACGT,1.01
8,AACATTGAA,1.03
9,GATACACTTC,1.03
10,CAAAGGGGA,1.15
11,AAAGAGACGG,1.03
12,ACCCAGATTT,1.01
13,AGTGGCGCCG,1.01
14,CAGAGGTCGA,0.989
15,TAGCACTAT,1.09
16,AATACGCTGG,0.999
17,GTTTTTCAGC,1.01
18,ATCTGGAAC,1.05
19,CAGGTCGTCA,0.984
20,ATCCGGGGCT,1.03
21,AGAGCACGT,1.04
22,AGCCACGTTG,0.975
23,CGTTCCAAAG,1.12

row,Sequence,switch fluorescence ratio
1,CGTATGGAAA,0.966
2,GGTGCGGTCT,1.03
3,GTATAGTGCG,1
4,GGGATCGCCT,0.992
5,CGTTACCCCA,1.13
6,ATCGGGCTGA,1.01
7,GGATTGGGCT,1.13
8,CGGTCGCGCA,0.983
9,GTATTAAGCC,1.03
10,GATAGAGTCT,1.04
11,ATTGTGGGTG,1.01
12,TATCGCCCGG,1.03
13,CGTTTTGCGT,0.983
14,CACTAAGATT,1.03
15,ACCTGGGCGT,1.03
16,TCGGGCACCT,1.28
17,TGTGTTCAAA,1
18,AATCTGTCCG,1.01
19,CAATCGAATC,1.02
20,CGTCAGGGGA,0.995
21,GCACCGGTTA,0.978
22,CGTTCCTGGA,0.978
23,ACTGTAGTGC,1.22

row,Sequence,switch fluorescence ratio
1,TTGACTGTCG,0.954
2,CAAACTTCTG,1.05
3,TGTGGGCGTT,1.02
4,GTTTGAATCA,0.975
5,TAACTCATAA,1.01
6,GCTCGATCAG,1.03
7,GTCATACTAT,1.01
8,TTACAGTCAT,1.01
9,TTTTACGACT,1.02
10,CGATCATGTT,1.01
11,GGTTCTAACT,0.998
12,GCGTTATATC,1.07
13,GCAGGCCTGG,0.959
14,TGGTCCGAAA,1.13
15,CGGTGAGCTA,0.996
16,TCCATGGCTT,0.953
17,GGCCCTAAAA,1.02
18,GAGCTATCTG,1.05
19,GGGGAGACAT,0.99
20,AACTTTGGGA,1.01
21,CCACAATGAA,1.17
22,CGGCGGTTGC,0.995
23,ATTCAAATCT,0.983

row,Sequence,switch fluorescence ratio
1,ACTTTGTTT,0.963
2,GTAAATGAAG,0.929
3,TTGGGCACAT,1.02
4,TAGCAATTTC,3.93
5,TCTATTGCCG,1.1
6,TGTTTCTATG,0.986
7,TTTACCATTA,1
8,CGTAGGTGAC,1.07
9,TGGGTCTTAT,0.975
10,GTCGCCCTGA,0.995
11,GTCAACTGTT,0.996
12,CGGATCGAAG,0.973
13,AGAAGGGCAT,1.03
14,CGTAGGCAC,1.08
15,CGTCCTGGGA,0.972
16,CACTGGACCG,1.09
17,ACTGATTGCT,0.971
18,CTTCGAAGCC,1.2
19,GAAATGGTAC,1
20,AACTGCCCCA,0.98
21,TGTTTTGTCT,0.931
22,TCGGCGGGTT,1.02
23,TCTGGTAGAC,1.1

row,Sequence,switch fluorescence ratio
1,GTCGGTCCG,1.03
2,TCTTCGTCAC,1.71
3,GTAGACACCT,1.15
4,ACAGGCTGTG,0.945
5,CGGTCAGAGG,1
6,TACCTAAAG,1.04
7,TGGGGGCGAT,1.57
8,GTTGATCAGG,0.978
9,AGTGGCGTTT,1.05
10,TACGGATCTC,1.01
11,TTCATCAA,1.01
12,CGCTAGCGGA,1.01
13,TAGATATGGC,0.989
14,TGGAATGTGA,1.05
15,GCACTTCCTG,1.01
16,GGTATTAGT,0.989
17,GTTTTTAG,0.973
18,CTATTTCGGT,0.99
19,TGTACCAGAA,1
20,TTGTTCAGGC,0.987
21,GCGTACGGCA,1.01
22,ACTTGAATCG,0.965
23,TTTGGTAAT,0.955

row,Sequence,switch fluorescence ratio
1,CTTTGAAACT,1.02
2,TGGGGCAGCT,0.98
3,GTTATGGTTA,0.998
4,GAAGCCTGGG,1.03
5,TCACGTTGA,1.04
6,TATTATCTCG,1
7,CAGAATGACC,0.99
8,GTATCTCTTA,0.974
9,TTCTTATACG,0.952
10,AACCGCACTA,2.41
11,CTACAGGAAC,1.05
12,ACCCCCACTC,1.57
13,GACGCTAATG,1.18
14,GTAAGAGTAC,1.09
15,AAGGCCCTCT,0.932
16,ATTATTTTTC,1
17,AGAGAAAAGG,0.975
18,GCTCAATGCC,1.01
19,TTGCGATTGG,1.01
20,TTGCGTTAT,0.991
21,ACCCTCGCGC,1.82
22,GTGGCGGGTT,0.976
23,ACCGCCGCCG,1.2

row,Sequence,switch fluorescence ratio
1,TCATTTATAC,0.989
2,ATATGTGCGG,1.06
3,CCATTCGGAC,1.02
4,GCCCTATGAC,0.976
5,GGGTGGTCAT,0.972
6,TATTGACTCG,1.05
7,GGTTATTTAT,1.02
8,CTGTGTAACC,0.97
9,CCATAATCAT,0.987
10,TTCTTAACAG,1.3
11,TTTTTCCAGG,1.61
12,GATCCGATGG,1
13,AACGGCCGCG,1.13
14,CTGCCATCGG,1.06
15,AAATTGGATT,1.02
16,ATCAGGGTTC,0.97
17,CCCAGTGGGC,1.08
18,TCGCAGGCTA,1.16
19,GTCACTCAAT,1.08
